Values of other authors in publication PMC8865417, “Receptor Interaction Profiles of 4-Alkoxy-3,5-Dimethoxy-Phenethylamines (Mescaline Derivatives) and Related Amphetamines” (Frontiers in Pharmacology, 2022).

Assays:
human 5-HT2A receptor = human 5-HT2A receptor (Homo sapiens, UniProt P28223); set-up: expressed in transfected cells; host or cells: NIH-3T3 cells (mouse embryonic fibroblasts); settings: reference substances, ref Luethi et al. (2018b), cited from earlier work
human 5-HT2B receptor = human 5-HT2B receptor (Homo sapiens, UniProt P41595); set-up: expressed in transfected cells; host or cells: HEK 293 cells; settings: reference substances, ref Luethi et al. (2018b), cited from earlier work
Chain of UniProt P41595 (P41595 whole entry): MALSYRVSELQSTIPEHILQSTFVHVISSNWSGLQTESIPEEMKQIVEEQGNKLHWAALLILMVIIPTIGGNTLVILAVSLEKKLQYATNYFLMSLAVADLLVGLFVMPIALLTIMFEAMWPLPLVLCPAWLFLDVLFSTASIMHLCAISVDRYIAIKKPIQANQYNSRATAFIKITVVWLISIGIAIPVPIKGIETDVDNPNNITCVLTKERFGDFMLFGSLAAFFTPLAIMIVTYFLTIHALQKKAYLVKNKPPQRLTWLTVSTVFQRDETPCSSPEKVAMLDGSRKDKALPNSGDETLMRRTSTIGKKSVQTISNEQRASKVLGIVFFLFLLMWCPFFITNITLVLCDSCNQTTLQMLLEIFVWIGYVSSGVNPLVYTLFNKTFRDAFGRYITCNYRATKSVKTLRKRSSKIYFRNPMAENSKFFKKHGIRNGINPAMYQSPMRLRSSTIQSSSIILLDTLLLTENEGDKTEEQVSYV

h5-HT1A receptor = biological target: T1, h5-HT1A receptor (Homo sapiens, UniProt P08908); settings: [3H]8-OH-DPAT; reference substances; ref Luethi et al. (2018b); read-out: h5-HT1A Receptor binding Ki ± SD; cited from earlier work
T1 construct: expressed in transfected cells; host or cells: HEK 293 cells (membrane preparations)
T1 sequence (P08908 whole entry): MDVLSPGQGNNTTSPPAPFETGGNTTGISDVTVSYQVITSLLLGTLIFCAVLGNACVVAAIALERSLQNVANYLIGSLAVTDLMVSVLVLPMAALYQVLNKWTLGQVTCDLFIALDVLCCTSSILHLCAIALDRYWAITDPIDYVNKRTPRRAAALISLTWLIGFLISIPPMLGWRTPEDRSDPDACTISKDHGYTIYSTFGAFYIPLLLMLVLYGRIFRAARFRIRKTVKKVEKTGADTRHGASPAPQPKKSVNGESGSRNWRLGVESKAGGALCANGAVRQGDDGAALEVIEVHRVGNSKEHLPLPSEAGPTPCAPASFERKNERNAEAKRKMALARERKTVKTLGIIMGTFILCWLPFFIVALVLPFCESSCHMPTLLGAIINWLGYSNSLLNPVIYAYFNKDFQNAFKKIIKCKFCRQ

Chain of UniProt P28223 (P28223 whole entry): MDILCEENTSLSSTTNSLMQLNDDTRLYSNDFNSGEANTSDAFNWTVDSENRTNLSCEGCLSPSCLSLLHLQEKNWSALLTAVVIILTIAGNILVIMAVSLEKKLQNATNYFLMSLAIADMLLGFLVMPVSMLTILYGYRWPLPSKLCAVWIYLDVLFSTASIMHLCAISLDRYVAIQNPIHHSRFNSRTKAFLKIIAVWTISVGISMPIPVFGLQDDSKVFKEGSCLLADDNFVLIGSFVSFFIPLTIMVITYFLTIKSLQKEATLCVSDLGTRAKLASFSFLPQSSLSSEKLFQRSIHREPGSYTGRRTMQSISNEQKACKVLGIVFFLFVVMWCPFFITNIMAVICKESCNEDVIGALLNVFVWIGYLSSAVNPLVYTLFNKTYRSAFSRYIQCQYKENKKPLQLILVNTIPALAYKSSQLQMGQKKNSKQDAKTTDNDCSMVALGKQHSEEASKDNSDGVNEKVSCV

| Compound | h5-HT2A Activation efficacy max ± SD (human 5-HT2A receptor) | EC50 (human 5-HT2A receptor; read-out: h5-HT2A Activation potency EC50 ± SD) | h5-HT2B Activation efficacy max ± SD (human 5-HT2B receptor) | EC50 (human 5-HT2B receptor; read-out: h5-HT2B Activation potency EC50 ± SD) | Ki (h5-HT1A receptor) |
| --- | --- | --- | --- | --- | --- |
| COc1cc(CCN)c(OC)cc1Br [2C-B] | 92 ± 8% | 2.1 ± 0.8 nM | 52 ± 26% | 75 ± 14 nM | 311 ± 46 nM |
| CCN(CC)C(=O)[C@@H]1C=C2c3cccc4[nH]cc(c34)C[C@H]2N(C)C1 [compound 3, lysergic acid diethylamide] | 73 ± 2% |  |  |  |  |
